Variants at the background level are over-represented here.
B1: TPR 5TU (parent)
chain: GGAUCUUCUCGAUCUAACAAAAAAGACAAAUCUGCCACAAAGCUUGAGAGCAUCUUCGGAUGCAGAGGCGGCAGCCUUCGGUGGCGCGAUAGCGCCAACGUUCUCAACUAUGACACGCAAAACGCGUGCUCCGUUGAAUGGAGUUUAUCAUG

Variants of: B1
Test: polymerase ribozyme fitness, log enrichment relative to wild type (log ratio); higher = more active; in vitro selection for triplet polymerase activity
Summary of the method: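 Mutant libraries of each subunit of a heterodimeric triplet polymerase ribozyme were built by PCR and transcribed. Each library went through one round of in vitro selection in triplicate: annealing with biotinylated primer, partner subunit and triplets, frozen incubation at −7 °C, gel excision of extended constructs, streptavidin-bead capture and RT-PCR. Input and output libraries were Illumina-sequenced; only genotypes with ≥10 input reads and ≥1 read per output were kept. Fitness is log2(genotype enrichment/wild-type enrichment), using inverse-variance-weighted replicate averages.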

Variant	polymerase ribozyme fitness (log ratio)
U9C G25A A28C C32U C85U	≤ -4.2
C8U U44A C131U	≤ -4.2
C8U A20G C57A C72A U78G G83U G86A	≤ -4.2
C8G U56G G80C C85U C96G U109C A147G A150U	≤ -4.2
C8U U45G C63G A91G C93U U146G	≤ -4.2
U9G A47G	-3.86
C8U A22C U44A A89U G94C C116A	≤ -4.2
C8U A20G A39C G83C A91U U145C	≤ -4.2
C8G U31A G59U C118U	≤ -4.2
U9A U61A C95A G136A G143U	≤ -4.2
U9A G68C C103G A119C	≤ -4.2
U9A A17U A23G G88U C95G A115U C123G C129G U130A G140U U145G	≤ -4.2
U9G A49C C76A G84A C96G C99U U101A A138U G140A	≤ -4.2
U9G A21C C54G U82G G141C	≤ -4.2
C8U A19G A39U C54U U61A G71A U77A G80C G88U G112C A113G C125G A150U	≤ -4.2
U9C A20U C75G C76U U82A C85A C96U A106C	≤ -4.2
U9A G48A C51A G94U	≤ -4.2
C8U A22U G83A C85U A120C G124A U145C	≤ -4.2
U9C U13C A16G G84A C95A	≤ -4.2
C8G U82G G84U C85U A107C	≤ -4.2
C8U A21C A22U C43A U61A G94A A97C A138G	≤ -4.2
C8G U53G C69U C85A G86A G128A	≤ -4.2
U9A U15G U44A G48A U53A C57U A64G U90G U130C	≤ -4.2
U9G A17G C54G C75G A147U	≤ -4.2

Variant	polymerase ribozyme fitness (log ratio)
C8U A22U A49G C69A G86A U104G C108U	≤ -4.2
C8U C51U C93U C123U C129G	≤ -4.2
U9A C75U G88C C99G U101A C118U A137C	≤ -4.2
U9C A37U G92A U102G C108U	≤ -4.2
C8G U53A C69A G140C	≤ -4.2
C8U G11A C36U C85G G128C	≤ -4.2
U9C A19G A21C C35U A49G A52U C87U U102C U151C	≤ -4.2
U9A G11C A24G A28U A37C G59C A60C A122G U127G G128A	≤ -4.2
U9G A24U A40C G50A A113U C118G G143U	≤ -4.2
C8U C87G A91U C105U U127A G141U U146A	≤ -4.2
C8U A20C U61A C76A A91U C96U C114U	≤ -4.2
U9G A12C G46C C79U C85U U90C U145A	≤ -4.2
U9A G25A A52U C149U	≤ -4.2
C8U G11A U53A C93A U130G	≤ -4.2
U9A G25C C38U G71U U135C A147G	≤ -4.2
U9C U31A U55A G59C U82G C108A C129G U144C	≤ -4.2
U9A U33G C96A C99U A122U	≤ -4.2
C8U A22U A23G C32A U82G G83A C87A U146G	≤ -4.2
C8U C10G A47U A60C C87A C114U	≤ -4.2
C8U A39G G84C U102G C116G A119C C149G	≤ -4.2
U9A U15G A20C C85G C96A A106U C118A G128U	≤ -4.2
U9C C38U C57A C79G C93U C149G	≤ -4.2
U9G A23U G34C A47C C76A C87U	≤ -4.2
C8U G67A U82G U90G C96A C105A C116A C125U U135A A147C U148G	≤ -4.2

Variant	polymerase ribozyme fitness (log ratio)
U9G A41G A49C A89G U101G C125A	≤ -4.2
U9A C38A C43U G94U U139A	≤ -4.2
U9G A66G	≤ -4.2
U9G A22U G48A C57G G59U A60U A73G G80C A122U G126A A142U	≤ -4.2
U9C C27U A40U G92A C95A	≤ -4.2
C8G U44G C57A C76A C96U G100C A106C	≤ -4.2
U9A A22U A39G C96G U109G	≤ -4.2
U9C C35A C93A G126A A137U	≤ -4.2
U9C G68C U101C C149G G152A	≤ -4.2
U9A C63U C85U U90A G140U	≤ -4.2
U9C C27U G84U G126U	≤ -4.2
C8U U33A C38U G62A	≤ -4.2
C8U A24U A29U A41C G74A C99A G124U	≤ -4.2
C8U U56A G94A A97U U102C	≤ -4.2
C8U C57U G71C G86A U104A	≤ -4.2
U9G A28C C57A C116A C129G	≤ -4.2
C8U C10A A52C C54U A137C	≤ -4.2
U9C U45G G59C G83C C87G C103A G117U G126A	≤ -4.2
U9A G68U A110G A138U G140C	≤ -4.2
U9A A39U A49G G59A C75U G84U G94A U130C	≤ -4.2
C8U C99A	-3.69
U9G A39C G59A A89G C93A U148A	≤ -4.2
C8U G86U A122G	≤ -4.2
C8U A24U A26U U55A C87A	≤ -4.2

Variant	polymerase ribozyme fitness (log ratio)
U9C C93A	≤ -4.2
U9G A19U U31A G62C U77G C93A U111A U134A U139A	≤ -4.2
C8U A12G U13G U77C U82A A89G A91G U102A	≤ -4.2
C8U A12G A24U G50U C63A G88A	≤ -4.2
C8U A23U G46A A49C A91C C129G	≤ -4.2
U9G C14G A110C C123U G141A	≤ -4.2
U9A A19U G133C	≤ -4.2
C8U A28G C43U G86U A113U	≤ -4.2
U9A C27U G67C A73G C93U G126C C132A	≤ -4.2
C8U U31A G48C A60G C72U C95G A121C U148A	≤ -4.2
C8U A24G G46C G58U C69A C93A C99A G133A	≤ -4.2
U9A U31G C57U G74C G92C	≤ -4.2
U9G A23C C32G U55G G65A C85U C116U C132G	≤ -4.2
C8U C35A C85A C105G G117C	≤ -4.2
C8U C95U	-2.24
C8U U61G C85G C105G A115C	≤ -4.2
C8U C35U A41C G58C G68U G86U C114A G140A	≤ -4.2
U9G A26G G74U C76A G86U G141C	≤ -4.2
U9C A49U A52G G92U A147C	≤ -4.2
C8U A60G A121C	-3.73
C8U G11A A47U A107G C108U U109G U135A	≤ -4.2
C8U C85G C93G	≤ -4.2
U9A C93U C99A	≤ -4.2
U9C C54U A89G	≤ -4.2

Variant	polymerase ribozyme fitness (log ratio)
U9C A26U C38U C54A A66C U78A A89C A97G	≤ -4.2
U9C C10G	-4.15
C8G U82A C85U C116U	≤ -4.2
C8U G141U	-2.76
C8U U56G G71C C85U C116A	≤ -4.2
U9C U44G C85A A110G G152A	≤ -4.2
C8U C27U C38U A39C C69U G94C C95G C103G	≤ -4.2
U9A U56A C72A G83C A91G C114U G141U G143A	≤ -4.2
U9G C10U U55A C95U C105A C108G	≤ -4.2
U9A G11A A24G A26U G74A G80U C87U G94C A115C U146G U151A	≤ -4.2
U9A C27U C36A G42C C69A G80A G136U G141C	≤ -4.2
U9A C93G	≤ -4.2
U9C U53G C54A C95U U104C A106U C118U C149G	≤ -4.2
U9A G11A C54A G59A C75G G84A	≤ -4.2
U9A A17C C18G A29C G67C A97U	≤ -4.2
U9G A19U G88C C93G A110G	≤ -4.2
U9A A12C G67A C93U A147G C149U	≤ -4.2
C8U A24G C43U C72A U77G G86A A89U U90G A107U	≤ -4.2
C8U A24C C85U G124C	≤ -4.2
C8U A24U G70A G92A U135A	≤ -4.2
U9C C38A A113U C118A	≤ -4.2
C8U G42A U55A C57A C85U C87A A142U	≤ -4.2
U9C A29C G92U C95A C116A	≤ -4.2
U9G A19G A39C A47G C76U G84A C103A A142C	≤ -4.2

Variant	polymerase ribozyme fitness (log ratio)
C8U A22G C75A C87U G140C	≤ -4.2
U9A A21G C116G A122G	≤ -4.2
U9G A29U G42C A52G G65C C85A A91G G143A	≤ -4.2
U9C C27A C54A U61G A73G G92U C93U C116U	≤ -4.2
U9A G11U C54U A66G C72U G81C C96A A107G G133U U145A	≤ -4.2
C8G U45A C85G	≤ -4.2
U9C A40G C85A A110G	≤ -4.2
U9C C10U C32A A39U A49C A60C G65U A66U G83A C87G	≤ -4.2
C8U G68C A91C A122C	≤ -4.2
U9G C14A A24U C105G	≤ -4.2
U9C U33A C69A A91G	≤ -4.2
U9A G94U C108A C116U	≤ -4.2
C8G U45A U55G G88U G126A	≤ -4.2
U9A G84U U102A	≤ -4.2
U9A A12U C85U G88C U148G	≤ -4.2
C8U A60U	-3.79
U9C U55A G70C G84U C95A U102C C103A	≤ -4.2
U9C G50U C85A C116A G136A	≤ -4.2
U9C A29U C69U C76A C85U C125G A137C G141U	≤ -4.2
U9A G67A G84A	≤ -4.2
U9G A22U A47G G88A U104A C118G A120U G141A A147C	≤ -4.2
U9A C75G C85G C95G	≤ -4.2
C8U C32U U53A C87U C96A U139A	≤ -4.2
U9A A21U	-3.81

Variant	polymerase ribozyme fitness (log ratio)
C8U A24U C51G G58C A64C C85U	≤ -4.2
C8U A22G A98G C131U U139C U144G	≤ -4.2
U9C A16U C79U C87A G94U C131A A142U	≤ -4.2
C8U A19G A20U A28C G86U C93G A113U	≤ -4.2
C8U U45A A49G G58U G83U G141U	≤ -4.2
U9C G11U G68C U104G C105G C118U G133C	≤ -4.2
U9C C96U A122G	≤ -4.2
C8U C54U G88C G92U U104A A107U	≤ -4.2
C8U A40U U53G G67A G92C C105A	≤ -4.2
U9C A19U C36G G62C C72G C87U U135A	≤ -4.2
U9A A20U A21U A39G C54A G92C C116G	≤ -4.2
C8U A16G C87U	≤ -4.2
U9A C14G G42C C54U U61A C79U C87U	≤ -4.2
C8G U31A A47G U55A C57U G81A U102G C103U C114A U134C	≤ -4.2
U9C A60C U82G G84A G86U C118G	≤ -4.2
C8U A30U C72A C85U C99A	≤ -4.2
C8U A28G A30U U44A U45A A91C C95U A97C C103G C105G	≤ -4.2
C8U A47C U55A A64G	≤ -4.2
C8U A16U A21C A26G C54U C69A U78G G81U C116A	≤ -4.2
C8U A29U C43A G46C C57G C85U U144G	≤ -4.2
C8U A16U A21C G67U C87U	≤ -4.2
C8U C79A G84A C87A A137C	≤ -4.2
C8U A12U A52U C85G	≤ -4.2

From the RNAGym collection of RNA variant scans (doi:10.1073/pnas.2313332121)
